Here are results for five molecules from article PMC9462479.

These are yes or no findings as the source states them, for the method shown. Binding seen in cells or lysates may run through a third protein. Some results given as binding are weak or reduced against the parent protein; the word gives no strength. Sequences can lack the tags named with a protein.

The experiment deals with T1, FLAG-SREBF1(N), N-terminus of mouse SREBF1, from pcDNA3.1-FLAG-Srebf1(N) in HEK293T (mouse) (UniProt Q9WTN3).
T1 sequence: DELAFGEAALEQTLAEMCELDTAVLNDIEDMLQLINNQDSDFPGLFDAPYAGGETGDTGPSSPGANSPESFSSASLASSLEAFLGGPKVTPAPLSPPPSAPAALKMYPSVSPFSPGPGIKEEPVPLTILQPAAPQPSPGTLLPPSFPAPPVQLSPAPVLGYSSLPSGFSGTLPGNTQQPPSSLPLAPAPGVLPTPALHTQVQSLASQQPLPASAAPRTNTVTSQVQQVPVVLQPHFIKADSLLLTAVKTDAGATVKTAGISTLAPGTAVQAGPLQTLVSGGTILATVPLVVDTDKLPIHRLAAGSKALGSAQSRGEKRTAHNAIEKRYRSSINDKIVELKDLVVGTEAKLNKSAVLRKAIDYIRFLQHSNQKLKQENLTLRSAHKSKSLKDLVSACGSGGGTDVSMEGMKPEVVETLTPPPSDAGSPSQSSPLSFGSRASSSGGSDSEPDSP
The experiment can be described thus: co-IP; FLAG IP: HEK293T cells transfected, lysed in TNE buffer (150 mM NaCl, 1% NP40), anti-FLAG M2 Affinity Gel, eluted with FLAG peptide, blotted with anti-myc.

B1: myc-tagged human ARMC5 (pcDNA3.1-myc-hARMC5), wild type (protein, UniProt Q96C12 1-935)
chain: MAAAKPTLTDSLSFCLAQLAAAAGEALGGEKDPATNETPLSRALLALRTRHIKAAGGIERFRARGGLRPLLALLRRAAAAGSAPSQAGPGSAPSSAASGASSPAPASGPAPSAVSSSSPTPPVRLRKTLDLALSILADCCTEGACRTEVRRLGGILPLVTILQCMKTDSIQNRTARALGNLAMEPESCGDIHCAGAVPLLVESLTACQDSQCLQSVVRALRNLADSPQHRLALAQQGAVRPLAELLATAPDAALTLALVRALLELSRGCSRACAEQLSLGGGLGPLVSLASHPKRAVREGTILILANLCAQGLIRPALGNAGGVEVLVDELRQRRDPNGASPTSQQPLVRAVCLLCREAINRARLRDAGGLDLLMGLLRDPRASAWHPRIVAALVGFLYDTGALGRLQALGLVPLLAGQLCGEAGEEEEEGREAASWDFPEERTPERAQGGSFRSLRSWLISEGYATGPDDISPDWSPEQCPPEPMEPASPAPTPTSLRAPRTQRTPGRSPAAAIEEPWGREGPALLLLSRFSQAPDPSGALVTGPALYGLLTYVTGAPGPPSPRALRILSRLTCNPACLEAFVRSYGAALLRAWLVLGVAPDDWPAPRARPTLHSRHRELGERLLQNLTVQAESPFGVGALTHLLLSGSPEDRVACALTLPFICRKPSLWRRLLLEQGGLRLLLAALTRPAPHPLFLFFAADSLSCLQDLVSPTVSPAVPQAVPMDLDSPSPCLYEPLLGPAPVPAPDLHFLLDSGLQLPAQRAASATASPFFRALLSGSFAEAQMDLVPLRGLSPGAAWPVLHHLHGCRGCGAALGPVPPPGQPLLGSEAEEALEAAGRFLLPGLEEELEEAVGRIHLGPQGGPESVGEVFRLGRPRLAAHCARWTLGSEQCPRKRGLALVGLVEAAGEEAGPLTEALLAVVMGIELGARVPA
On to B1, for which the binding result is “binds”.

B2: myc-tagged human ARMC5(L754P) (protein, UniProt Q96C12 1-935)
chain: MAAAKPTLTDSLSFCLAQLAAAAGEALGGEKDPATNETPLSRALLALRTRHIKAAGGIERFRARGGLRPLLALLRRAAAAGSAPSQAGPGSAPSSAASGASSPAPASGPAPSAVSSSSPTPPVRLRKTLDLALSILADCCTEGACRTEVRRLGGILPLVTILQCMKTDSIQNRTARALGNLAMEPESCGDIHCAGAVPLLVESLTACQDSQCLQSVVRALRNLADSPQHRLALAQQGAVRPLAELLATAPDAALTLALVRALLELSRGCSRACAEQLSLGGGLGPLVSLASHPKRAVREGTILILANLCAQGLIRPALGNAGGVEVLVDELRQRRDPNGASPTSQQPLVRAVCLLCREAINRARLRDAGGLDLLMGLLRDPRASAWHPRIVAALVGFLYDTGALGRLQALGLVPLLAGQLCGEAGEEEEEGREAASWDFPEERTPERAQGGSFRSLRSWLISEGYATGPDDISPDWSPEQCPPEPMEPASPAPTPTSLRAPRTQRTPGRSPAAAIEEPWGREGPALLLLSRFSQAPDPSGALVTGPALYGLLTYVTGAPGPPSPRALRILSRLTCNPACLEAFVRSYGAALLRAWLVLGVAPDDWPAPRARPTLHSRHRELGERLLQNLTVQAESPFGVGALTHLLLSGSPEDRVACALTLPFICRKPSLWRRLLLEQGGLRLLLAALTRPAPHPLFLFFAADSLSCLQDLVSPTVSPAVPQAVPMDLDSPSPCLYEPLLGPAPVPAPDLHFLPDSGLQLPAQRAASATASPFFRALLSGSFAEAQMDLVPLRGLSPGAAWPVLHHLHGCRGCGAALGPVPPPGQPLLGSEAEEALEAAGRFLLPGLEEELEEAVGRIHLGPQGGPESVGEVFRLGRPRLAAHCARWTLGSEQCPRKRGLALVGLVEAAGEEAGPLTEALLAVVMGIELGARVPA
On to B2, for which the binding result was “binds”.

B3: myc-tagged human ARMC5(R898W) (protein, UniProt Q96C12 1-935)
chain: MAAAKPTLTDSLSFCLAQLAAAAGEALGGEKDPATNETPLSRALLALRTRHIKAAGGIERFRARGGLRPLLALLRRAAAAGSAPSQAGPGSAPSSAASGASSPAPASGPAPSAVSSSSPTPPVRLRKTLDLALSILADCCTEGACRTEVRRLGGILPLVTILQCMKTDSIQNRTARALGNLAMEPESCGDIHCAGAVPLLVESLTACQDSQCLQSVVRALRNLADSPQHRLALAQQGAVRPLAELLATAPDAALTLALVRALLELSRGCSRACAEQLSLGGGLGPLVSLASHPKRAVREGTILILANLCAQGLIRPALGNAGGVEVLVDELRQRRDPNGASPTSQQPLVRAVCLLCREAINRARLRDAGGLDLLMGLLRDPRASAWHPRIVAALVGFLYDTGALGRLQALGLVPLLAGQLCGEAGEEEEEGREAASWDFPEERTPERAQGGSFRSLRSWLISEGYATGPDDISPDWSPEQCPPEPMEPASPAPTPTSLRAPRTQRTPGRSPAAAIEEPWGREGPALLLLSRFSQAPDPSGALVTGPALYGLLTYVTGAPGPPSPRALRILSRLTCNPACLEAFVRSYGAALLRAWLVLGVAPDDWPAPRARPTLHSRHRELGERLLQNLTVQAESPFGVGALTHLLLSGSPEDRVACALTLPFICRKPSLWRRLLLEQGGLRLLLAALTRPAPHPLFLFFAADSLSCLQDLVSPTVSPAVPQAVPMDLDSPSPCLYEPLLGPAPVPAPDLHFLLDSGLQLPAQRAASATASPFFRALLSGSFAEAQMDLVPLRGLSPGAAWPVLHHLHGCRGCGAALGPVPPPGQPLLGSEAEEALEAAGRFLLPGLEEELEEAVGRIHLGPQGGPESVGEVFRLGRPRLAAHCARWTLGSEQCPRKWGLALVGLVEAAGEEAGPLTEALLAVVMGIELGARVPA
In the case of B3, the binding entry was “binds”.

B4: myc-tagged mouse ARMC5ΔARM, N-terminal deletion mutant (pcDNA3.1-myc-mArmc5ΔARM) (domain or fragment, UniProt Q5EBP3 442-926)
chain: GQAEGGSFRSLRLWLISEGYAAGPGDISPDWSPERCPMPEPSESVSPTPGQTSMSTPRTLRKPGRIPAATPEEPWGQEGPALLLLSRFSQAPDPSGALVTGPALCGLLAYVTGAPGPPNPRALRILARLTCNPACLEAFVRTYGAALLRAWLVLGVSPDDWPVPHARPVHRSQHRELGEMLLQNLTVQAESPFGVGALTHLLLSGSPEDRVACALTLPFICRKPTLWRRLLLDQGGLRLLLTALTQPAPHPLFLFFAADSLSCLQGLVSPTASPVPLPALPLELDSPPPCLYEPLLGPAPAPAPDLHFVLDSGLQLPAQRAASAAASPFFRALLSGSFAEAQMDLVPLRGLSPGAAWPVLHHLHGCRGCGAALGPVPPPGQPLLGSKAEEALEAAGRFLLPALEEELEEAVGRIHLSPRGGPESVGEVFRLGRPRLAAHCARWTLEPGQCPRKRALALTGLVEAAGEEAGPLTEALLAVVMGIES
As for B4, the binding result is “no binding”.

B5: myc-tagged mouse ARMC5ΔBTB, C-terminal deletion mutant (pcDNA3.1-myc-mArmc5ΔBTB) (domain or fragment, UniProt Q5EBP3 1-730)
chain: MAAARPALTDSLSFCLAQLTAAAGEGPGGGKDPATNETPLGRALLALRTRHIKAAEGIERFRARGGLRPLLALLRRTAAAGPAPSQAASGSAPSSVASAGSTPGHAPAAESLLTPSLPMRLRKTLDLALSILANCCTEGACRAEVRRLGGILPLVTILQCVKTDSIQNRTARALGNLAMEPESCRDIHSAGAVPFLVESLTACQDSQCLQSIVRALRNLADSPQHRLALAQQGAVRPLAELLATAPDPALTAALVRALLELSRGCSRACAEQLSLGGALGPLVSLASHPKRAIREAAILILANLCAQGLVRPALGNAGGVEVLLGELRRRRSPGGSSSATQQPLVRAVCLLCREAINRARLRDAGGLELLMGLLQDPGASAWHPRVVAALVGFLYDTGALGKLQALGLVPLLARQLCGEAGEEEEEGIEAASWDFPEERTSGQAEGGSFRSLRLWLISEGYAAGPGDISPDWSPERCPMPEPSESVSPTPGQTSMSTPRTLRKPGRIPAATPEEPWGQEGPALLLLSRFSQAPDPSGALVTGPALCGLLAYVTGAPGPPNPRALRILARLTCNPACLEAFVRTYGAALLRAWLVLGVSPDDWPVPHARPVHRSQHRELGEMLLQNLTVQAESPFGVGALTHLLLSGSPEDRVACALTLPFICRKPTLWRRLLLDQGGLRLLLTALTQPAPHPLFLFFAADSLSCLQGLVSPTASPVPLPALPLELDSPPP
Take B5: the binding result is “binds”.
